Some of the results follow. At the low end of the ranking the order means little. Measured with an extract: partners may take part in the binding.

The target of the assay is T1, HNF4alpha2 (COS-7 nuclear extract) (UniProt P41235).
T1 sequence: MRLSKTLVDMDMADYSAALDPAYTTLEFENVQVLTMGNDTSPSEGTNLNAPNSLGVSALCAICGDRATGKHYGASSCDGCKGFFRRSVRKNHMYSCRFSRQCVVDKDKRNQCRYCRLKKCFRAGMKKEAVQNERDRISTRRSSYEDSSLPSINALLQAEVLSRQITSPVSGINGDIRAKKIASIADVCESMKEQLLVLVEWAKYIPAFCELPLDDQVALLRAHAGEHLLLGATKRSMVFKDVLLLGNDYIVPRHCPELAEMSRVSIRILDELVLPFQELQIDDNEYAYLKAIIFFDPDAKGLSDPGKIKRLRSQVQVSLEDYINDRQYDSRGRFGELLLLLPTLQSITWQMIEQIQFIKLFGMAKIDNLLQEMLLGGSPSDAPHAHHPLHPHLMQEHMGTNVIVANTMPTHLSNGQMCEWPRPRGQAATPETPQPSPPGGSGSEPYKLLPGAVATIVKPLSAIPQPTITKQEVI
Put plainly: protein-binding microarray. The following applies: COS-7 nuclear extract on double-stranded Agilent 4x180k PBM; binding buffer, salt, pH and temperature not given; high values mean tight binding; double strand, one strand shown; sequences stand for … in …GCCTAGGGAGATTAGAGTATCGGTCGA
For the sequence GATCAAAGGTTGGTTTTTGGAGACAGGAGT, the binding signal (log2 normalized intensity) worked out at 2.96.

For the sequence TAGCATGAACTACACAGATTCTGCAAACCT, the binding signal (log2 normalized intensity) was -1.31.

For the sequence AGTATTTATTGAGCACTTTTGGTATGCAAG, the binding signal (log2 normalized intensity) was found to be 0.973.

As to AAGCAGAGGTGACCCTTGCACTCATACTTG, the binding signal (log2 normalized intensity) was determined as 4.5.

Regarding TTTGGGCTCATCCATTTTCCTCTGAAAATC, the binding signal (log2 normalized intensity) is -1.05.

For the sequence TACCCAAGCCCCAAATCTAGCATCAGTGAG, the binding signal (log2 normalized intensity) came out at 0.61.

Regarding CACATACAGAATCCTTTACCTCCACCTCCA, the binding signal (log2 normalized intensity) was determined as 0.923.

For TATGCCTCTGTGACCTATAATCAGATGTAC, the binding signal (log2 normalized intensity) is 1.77.

For the sequence CAAGCTGGCTGGCTTTAGAGTTGTAGCTCT, the binding signal (log2 normalized intensity) is -1.08.

TTGCCCCCGGGCACAGGGTTGAGTGGTGAC: the binding signal (log2 normalized intensity) stood at 2.71.

Turning to TCTGTAGTTTTCGTTGTCTAATCCTTCAAA, the binding signal (log2 normalized intensity) is 1.03.

Turning to GAGGAAGACATCATATTTGTTATATTTGTT, the binding signal (log2 normalized intensity) came to 1.43.

Regarding GACCTTTCACCCGCGCCCAGCGGTTCCGGG, the binding signal (log2 normalized intensity) was 3.05.

In the case of GGCACACACGCATGGCCGGCAGCAGCCTTG, the binding signal (log2 normalized intensity) is -1.16.

As for AGAAAGTGGCCGGACAGGTTGGGTCTGAAG, the binding signal (log2 normalized intensity) worked out at 0.00742.

Consider TAGATGTCCCAGTAGATAACTTCAAGGAGC, for which the binding signal (log2 normalized intensity) was -0.484.

As to GGCCTATAATTAGGTCTTTTGGTGAGTCTT, the binding signal (log2 normalized intensity) worked out at 1.52.

On to CAAACTGCTGAAGATAAGACTTCCTCAGAT, for which the binding signal (log2 normalized intensity) was -1.06.

In the case of AGTCCAGAGTCTGACAGAACTAAGCTGTTG, the binding signal (log2 normalized intensity) was -1.13.

As to GGTAATCACCCTCTCCACCCCCATGCAAGT, the binding signal (log2 normalized intensity) stood at 5.21.

In the case of CGGACCAGAGCCTGCCCCCGGGGCCGCCTT, the binding signal (log2 normalized intensity) is -1.15.

As for GCCTCCTGCCCCAGGAGCAGGATAGAAGGA, the binding signal (log2 normalized intensity) is -1.1.

As to GTTTGCTTTTCCTTATCATCACATGTGCAA, the binding signal (log2 normalized intensity) amounted to 1.44.

For the sequence AAAGGTGAGAGAGCATCCAGATAAAGCTGA, the binding signal (log2 normalized intensity) is -1.12.

Consider TTCAGATATTCCTGGAATGACAAGAATTGG, for which the binding signal (log2 normalized intensity) amounted to 0.202.

AAATCAACAAATAAATAAGAAGCCTTATCA: the binding signal (log2 normalized intensity) was -1.09.

As to TGGCCAAAGTTCAGTAAATCTTAGAGAACA, the binding signal (log2 normalized intensity) came out at 1.8.

For TAAACCTGTTTGGTATCTACTCGGCAAAAC, the binding signal (log2 normalized intensity) was found to be 0.0275.

As to TTGTGAGTCCAAAGGTCAGCCGGGGAAGGT, the binding signal (log2 normalized intensity) worked out at 6.71.

On to CCTTGAGTTTGAACTTTGACTTATTTAGTA, for which the binding signal (log2 normalized intensity) worked out at 4.99.

Turning to CCTTGGATCTCCTGCACCTGAACTTTGCTC, the binding signal (log2 normalized intensity) amounted to 6.35.

Turning to AAGTGGAATGCGCTTTCATGAGATGAAAGC, the binding signal (log2 normalized intensity) was -1.19.

CAGCAGGGCACCGCCTCCACACCCCAGCCT: the binding signal (log2 normalized intensity) stood at 3.03.

As to GGGCCAAAAGCAGCCATTAAGAAGCAAGTG, the binding signal (log2 normalized intensity) is -0.613.

Regarding CCCAGCCTATTAACCCCAAATTCCTCATGC, the binding signal (log2 normalized intensity) was 1.67.

Turning to CCTTCAACTGATTAGATAAGGTTCACCCAC, the binding signal (log2 normalized intensity) was 1.98.

With TGAGAGAGCTGCATTGCTTCTGAAGGCTTA, the binding signal (log2 normalized intensity) was -1.25.

As for TCTTCTCAGTGTTTTGGGTCCTACAGAACC, the binding signal (log2 normalized intensity) turned out to be 0.349.

Turning to ATTCATTCCCTAAGATTCTGGTCAAAGGTC, the binding signal (log2 normalized intensity) was determined as 7.3.

For GCCAGCTGGCCTCCTGCGGTCCGGACTCTG, the binding signal (log2 normalized intensity) was determined as 2.29.

On to AGCTGGAATGAAACGGATGCAAAGGCTGAG, for which the binding signal (log2 normalized intensity) is -1.04.

In the case of CTGCATTCCTCAACTCTAGGAGCATGTCAA, the binding signal (log2 normalized intensity) is -0.667.

On to GAGGGAGAGTGGCCTTTGGAATCAAACAGA, for which the binding signal (log2 normalized intensity) was determined as 2.22.

As to TTCATTTAGACATGTTTACTTTTGCAAGGT, the binding signal (log2 normalized intensity) turned out to be 2.06.

As for CATGCCACACATTGCTGCCATAACTCAAAA, the binding signal (log2 normalized intensity) was -1.

On to GTGAGGCCAAAAGGTGCTACCACGAGAGTA, for which the binding signal (log2 normalized intensity) was -0.936.

With CTCCGGCCGGGAAGATGCCAGCCCCGAGAT, the binding signal (log2 normalized intensity) amounted to 3.78.

Regarding ATGCACGGAAGCCTTCCCCGCCCGCAGCCC, the binding signal (log2 normalized intensity) amounted to 4.08.

Take AGGATCAAGGGTGGATATTGGGAGGCCCAT: the binding signal (log2 normalized intensity) was -1.26.

Turning to GGGGCCAGTGTCATTTACAGAATTTCTCAG, the binding signal (log2 normalized intensity) is -1.14.

With CAGCAAGGCCCAGGGCAAGGACTCTAAAGG, the binding signal (log2 normalized intensity) was -1.11.

GTGCATGGAGTGCACTGTGATCTTTAGAAA: the binding signal (log2 normalized intensity) was found to be 2.17.

In the case of CGCTAGAGCAAATACAGCACTCAAATGATC, the binding signal (log2 normalized intensity) was -1.25.

For the sequence GAGCAAACACCAAGGGCAGAGTCCTGGGGA, the binding signal (log2 normalized intensity) was -1.1.

As for CTCAACAAATATTAGCTGTTGGCTCCAGAG, the binding signal (log2 normalized intensity) was -1.08.

With AGGGGAGATAATGCCAGAAAGGTCTAAAAG, the binding signal (log2 normalized intensity) was -1.22.

As for CAGATCCCTCTGGTGCTGATGTGTTCGCCC, the binding signal (log2 normalized intensity) stood at 1.69.

As to TTCCCAAGTGCTAGCTTGGTCTGAACCTCA, the binding signal (log2 normalized intensity) is 1.34.

In the case of CCCAAGTGGCCATCTTCACGCAATACTAGC, the binding signal (log2 normalized intensity) is -0.981.

As to ATGTCCTCAGTACACTGCCTCCTTCAAGGA, the binding signal (log2 normalized intensity) was -0.775.

For the sequence AAAGTCAACGGCTCTGCATATGCCAACAGG, the binding signal (log2 normalized intensity) was -1.08.

For TATCATCTGATCCTTGTACCTGCGACTGAG, the binding signal (log2 normalized intensity) is 1.59.

For the sequence ACTGATAGTCTCCTATCAAGAAAATAGAAG, the binding signal (log2 normalized intensity) was -1.14.

For GCTTTTGGAAGGACTTCGAATGGTATGCTA, the binding signal (log2 normalized intensity) came to 0.461.

Turning to CAGTGAGATTAGGAAGTGTGCACAAGTCCT, the binding signal (log2 normalized intensity) is -0.978.

Turning to ACTAAAACCTGCTGCAGGAGAGATGGTCAG, the binding signal (log2 normalized intensity) was 0.5.

Turning to AAGGATAAATACTTCTCCTCTTATCTTCAG, the binding signal (log2 normalized intensity) was -1.06.

As for GCTGAAAGCTCCAAGTTTATAATCCTAGCT, the binding signal (log2 normalized intensity) was -0.946.

With TTGTTGTTAGAACAAAGTCCAAATTCCTAA, the binding signal (log2 normalized intensity) stood at 3.89.

Take CAGTTATCATTTCTACAGGGTCAAGCAAAC: the binding signal (log2 normalized intensity) is 1.83.

With AGGAGTGGACTGTTCAAGACCAAAGGTCAT, the binding signal (log2 normalized intensity) came to 5.65.

TAGGCTTGGAGCCTTGTAAAATGTACATGG: the binding signal (log2 normalized intensity) was 0.436.

On to TCCCTGCCCACATCCATTTTCTATCCTACT, for which the binding signal (log2 normalized intensity) is -0.91.

These data come from publication PMC10726135.
